Source: PubChem BioAssay AID1347417 (National Center for Advancing Translational Sciences (NCATS), 2020)
About 5,300 (4.4%) of roughly 120,000 compounds were called active. The shares of active, inactive and inconclusive entries below differ from those in the screen. The call rests on the fitted dose curve; in most records, active means well fitted inhibition curve with a large enough effect; inconclusive means small, poorly fitted or top-dose-only effect; inactive means no such curve, though single readings can be large or run the other way. A potency beside an inconclusive call is a rough fit, not a confirmed value.

test: qHTS Primary assay for Inhibitors of Plasmodium falciparum Dd2 growth in vitro; further: nearly all actives have a fitted effect of over 65% in size; settings: P. falciparum Dd2 growth, SYBR Green, 72 h; series mostly up to 28.9 µM
Summary of the method: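 Readout: SYBR Green fluorescence, 485 nm excitation, 535 nm emission, after ~16 h lysis at 37C. Before that, Dd2-infected red cells (2.5% hematocrit) grew 72 h with compound, 29 uM top final concentration.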
Potency means the concentration at half of the fitted maximal effect; tags describe the fitted curve by direction and shape.

SMILES | Potency
C=CCCC(CN1CCCOCC1)Oc1ccc(-c2ccccc2)nn1 (stereo unspecified) | active: 14.1 µM
COCc1nncn1C1CCN(S(=O)(=O)c2ccc(C)c(F)c2)CC1 | inconclusive: 12.6 µM [inhibitor, single point]
COc1ccc(-c2cn3nc(N4CCCC(C(=O)NCc5ccc(Cl)cc5)C4)sc3n2)cc1 (stereo unspecified) | inconclusive: 17.8 µM [inhibitor, single point]
Cn1cccc1CNC(=O)C1c2ccccc2C(=O)N(C2CCCCC2)C12CCCC2 (stereo unspecified) | inconclusive: 11.2 µM [inhibitor, single point]
CCOC(=O)C1=C(C)N=C2SC=C(CC(=O)NCC3CC3)N2C1c1ccccc1OC (stereo unspecified) | inconclusive: 2.24 µM [inhibitor, partial curve, poor fit]
CS(=O)(=O)NC[C@H]1O[C@@H](CO)[C@@H](O)C1N1CCN(c2ccccc2)CC1 (stereo partly specified) | inactive
OCC1(Cc2ccccc2)CCCN(Cc2cnn(-c3cccc(Cl)c3)c2)C1 (stereo unspecified) | inconclusive: 10 µM [inhibitor, partial curve]
COc1ccc(/C=C/C(=O)Nc2ccc3nc4c(c(Nc5ccc(OC)c(OC)c5)c3c2)CCCC4)cc1 | active: 2.24 µM
CC1CCC2(CC1)NC(=O)N(CC(=O)Nc1ccccc1Cl)C2=O (stereo unspecified) | inactive
O=C1CC2(CCN(C(=O)c3ccc(C(F)(F)F)cc3)CC2)Oc2ccccc21 | inconclusive: 11.2 µM [inhibitor, partial curve, poor fit]
CCC1CCCCN1S(=O)(=O)c1cc2c(cc1C)NC(=O)CO2 (stereo unspecified) | inconclusive: 7.94 µM [inhibitor, partial curve, poor fit]
CCOC(=O)C1(Cc2ccccc2F)CCCNC1 (stereo unspecified) | inconclusive: 7.94 µM [inhibitor, partial curve]
Cc1ccc(Nc2ncc(C(=O)Nc3ccc(F)cc3F)c3ccccc23)cc1Cl | inconclusive: 17.8 µM [inhibitor, single point]
COc1ccc(CN2Cc3[nH]nc(-c4cccc(C(F)(F)F)c4)c3CC2=O)cc1 | inconclusive: 7.94 µM [inhibitor, single point]
CNC(=O)CN(C)Cc1cc(Cl)ccc1OCC(O)CN1CCCCCC1 (stereo unspecified) | active: 2.82 µM
CC(NC(=O)Cc1ccc(N(Cc2ccc(F)cc2)C(=O)c2ccco2)cc1)c1ccccc1 (stereo unspecified) | inconclusive: 3.98 µM [inhibitor, partial curve, poor fit]
CN1CC(=O)N(c2ccccc2)Cc2c(NCCO)ncnc21 | inactive
COCCN1C(=O)c2cccn2CC1CNC(=O)c1ccc(OC)cc1 (stereo unspecified) | inactive
CCC1(C(=O)NCc2ccc(C(C)C)cc2)CCCCC(=O)N1 (stereo unspecified) | inactive
COCC(=O)N[C@H]1[C@H](O)[C@H](O)C[C@@H]1c1ccccc1C | inactive
CCNC(=O)[C@@H]1CCCN1C1(C(=O)NC)CCOCC1 | inconclusive: 7.08 µM [inhibitor, single point]
CCOCCN1C(=O)COC[C@@H]1[C@H](O)c1ccc(NC(=O)Cc2ccccc2)cc1 | inconclusive: 10 µM [inhibitor, single point]

SMILES | Potency
O=C(NCCc1ccc(Cl)cc1)c1nc(-c2ccc(Cl)cc2)c2ccccn12 | inconclusive: 14.1 µM [inhibitor, single point]
CC(=O)N1CCCC2(C1)C(=NC1CCCCC1)NC(=O)N2c1cccnc1 (stereo unspecified) | inactive
O=C1COCC2(CN1Cc1ccccc1)CN(C(=O)c1ccc(F)c(Cl)c1)C2 | inconclusive: 22.4 µM [inhibitor, single point]
Clc1ccccc1CN1CCc2nc(N3CCN(c4ncccn4)CC3)ncc2C1 | inconclusive: 8.91 µM [inhibitor, single point]
COc1ccc(CNC(=O)O[C@H]2COCCN(c3nc4ccccc4s3)C2)cc1 | inactive
CC(=O)Nc1ccc(C(=O)Nc2ccc3c(c2)N(C2CCCC2)C(=O)c2ccccc2S3)cc1 | inconclusive: 17.8 µM [inhibitor, single point]
CCOCCCNC(=O)C1CCc2ncc(-c3ccsc3)n2C1 (stereo unspecified) | inconclusive: 17.8 µM [inhibitor, single point]
COc1ccc(NC(=O)Cn2c(=O)n(Cc3ccco3)c(=O)c3oc4ccccc4c32)cc1Cl | inconclusive: 17.8 µM [inhibitor, single point]
Cc1ccccc1-c1onc(C)c1C(=O)NCCOC(C)C | inconclusive: 12.6 µM [inhibitor, partial curve, poor fit]
C[C@@H](NC(=O)C1=C[C@@H](NC(=O)CC(C)(C)C)[C@@H](O)[C@H](O)C1)C(N)=O | inactive
CCN(CC)c1cc(CCC(=O)NCc2ccccc2OC)ccn1 | inconclusive: 8.91 µM [inhibitor, single point]
COc1cc2c(cc1NC(=O)COc1ccc(Cl)cc1)oc1ccccc12 | inactive
CN(Cc1nc2ccc(F)cc2[nH]1)c1cc(C2CC(O)C2)ncn1 (stereo unspecified) | inactive
Cc1nc(-c2ccccc2)n(Cc2cc(F)cc(F)c2)c(=O)c1CCO | inconclusive: 17.8 µM [inhibitor, partial curve, poor fit]
COc1cc(OC)c(NC(=O)N2CCc3cc(S(=O)(=O)N4CCC(C)CC4)ccc32)cc1Cl | inconclusive: 0.0891 µM [inhibitor, full curve, poor fit]
O=C1NCCCCCCN(C(=O)NC2CCCCC2)[C@H]2C[C@H](C(=O)N3CCc4ccccc4C3)C[C@@H]12 | inconclusive: 6.31 µM [inhibitor, partial curve, poor fit]
Cc1cc(C)cc(NC(=O)c2cc(S(=O)(=O)N3CCCC3)ccc2F)c1 | inconclusive: 11.2 µM [inhibitor, single point]
Nc1nc(C(=O)N[C@H]2CCOC[C@H]2C2CCOCC2)cs1 | inactive
Cc1ccncc1C(=O)N1CCCn2ccnc2C1c1ccccc1 (stereo unspecified) | inactive
Cc1ccc(C)c(NC(=O)c2nnn(Cc3ccc(F)cc3Cl)c2N)c1 | inconclusive: 3.98 µM [inhibitor, partial curve, poor fit]
Cc1cccc(CNC(=O)CCc2conc2-c2cccc(F)c2)c1 | inconclusive: 3.98 µM [inhibitor, single point]
CCc1c(C)sc2c1CCN(C(=O)Nc1cc(C)ccc1C)C2c1ccc(OC)cc1 (stereo unspecified) | inconclusive: 10 µM [inhibitor, single point]

SMILES | Potency
O=C(C1CCCC1)N1CC2(CCN(C3COC3)C2)Cc2ccccc21 (stereo unspecified) | inconclusive: 7.08 µM [inhibitor, partial curve, poor fit]
CC#CCn1cc2c3c(cccc31)[C@H](CC(C)C)N[C@H](C(=O)NCCNC(C)=O)C2 | inconclusive: 5.62 µM [inhibitor, single point]
Cn1cc(-c2ccc3c(n2)CN(Cc2ccccc2)C(=O)CO3)cn1 | inactive
COc1ccc(N2CCN(c3nc(C(=O)NCc4ccccc4C)cs3)CC2)cc1 | active: 8.91 µM
Cc1ccc2nc(C3CCCN(Cc4cccs4)C3)[nH]c(=O)c2c1 (stereo unspecified) | inconclusive: 7.94 µM [inhibitor, single point]
Cc1cc(F)cc(CN2CCc3nc(C(=O)NCc4ccncc4)oc3CC2)c1 | inconclusive: 10 µM [inhibitor, single point]
COc1ccc(-c2cc(=O)oc3c4c(ccc23)OCN(Cc2ccccc2)C4)cc1 | active: 0.891 µM
O=C(NC1CCOCC1)c1ccc2c(c1)C1(CCN(CC3CC3)C1)CN2Cc1ccccc1 (stereo unspecified) | inconclusive: 15.8 µM [inhibitor, single point]
Cc1cc(C(=O)NC2CCc3nnc(C)n3CC2)c(C)n1Cc1ccco1 (stereo unspecified) | inactive
Clc1ccc2oc([C@H]3CCN(Cc4ccccn4)C3)nc2c1 | inconclusive: 31.6 µM [inhibitor, single point]
Cc1cc(C)cc(-n2c(SCC(=O)N3CCCCCC3)nc3c([nH]c4ccccc43)c2=O)c1 | inconclusive: 4.47 µM [inhibitor, partial curve, poor fit]
Cc1oc2c(c1C(=O)NCc1ccncc1)CN(Cc1cccc(F)c1)CC2 | active: 10 µM
COc1ccc(S(=O)(=O)NCC2Cn3cccc3C(=O)N2Cc2ccccc2)cc1 (stereo unspecified) | inconclusive: 10 µM [inhibitor, single point]
O=C(Nc1cccc(C(F)(F)F)c1)O[C@@H]1CO[C@H]2[C@@H]1OC[C@@H]2n1nnnc1-c1ccccc1 | inconclusive: 5.62 µM [inhibitor, partial curve]
COc1ccc2[nH]c3c(c2c1)CCNC31CCN(C(=O)c2ccc(C)s2)CC1 | inactive
Cc1ccc(Nc2c(-c3ccc(C)o3)nc3cccc(C)n23)cc1 | inconclusive: 10 µM [inhibitor, single point]
O=C1c2c(nc(CNCc3ccc4c(c3)OCO4)n2Cc2ccccc2)NCCN1Cc1ccccc1 | inconclusive: 7.94 µM [inhibitor, partial curve, poor fit]
CCCc1noc(-c2cccn3c(CNC(=O)Cc4c[nH]c5ccccc45)nnc23)n1 | inactive
CCn1cc2nc(SCc3cccc(C(F)(F)F)c3)n(Cc3ccc(OC)cc3)c(=O)c2n1 | inconclusive: 12.6 µM [inhibitor, partial curve, poor fit]
Cc1nc2cc(S(=O)(=O)N3CCOCC3)ccc2n1CCNC(=O)C1CC1 | inactive
Cc1ccc(NC(=O)N2CCc3c(C(=O)NC(C)c4cccnc4)cccc32)cc1 (stereo unspecified) | inconclusive: 10 µM [inhibitor, single point]
CC(=O)c1ccc(NC(=O)N[C@H]2CO[C@H]3[C@@H]2OC[C@@H]3n2nnnc2-c2ccc(N(C)C)cc2)cc1 | inactive
